# Source: PubChem BioAssay AID1745853 (National Center for Advancing Translational Sciences (NCATS), 2022)
# Some of the results follow. The main result of the screen is listed elsewhere. These columns were measured beside it and carry no call.
# Tests used:
# Assay in all cases: Primary Screen for Target Class Profiling of Small Molecule Inhibitors of Methyltransferases
# [1] = molecular target: Glycine N-methyltransferase (Homo sapiens) (UniProt Q14749); conditions: purified enzyme, MTase-Glo SAH luminescence; measured here: GNMT inhibition; at 40 µM; stronger effect = lower value
# How it was run: (§1)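 Each enzyme was reacted with SAM and its substrate, with compounds tested once at 40 uM; SAH formed was read by MTase-Glo luminescence.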
# [2] = molecular target: Guanidinoacetate N-methyltransferase (Homo sapiens) (UniProt Q14353); conditions: purified enzyme, MTase-Glo SAH luminescence; measured here: GAMT inhibition; at 40 µM; stronger effect = lower value
# How it was run: as §1
# [3] = molecular target: Histamine N-methyltransferase (Homo sapiens) (UniProt P50135); conditions: purified enzyme, MTase-Glo SAH luminescence; measured here: HNMT inhibition; at 40 µM; stronger effect = lower value
# How it was run: as §1
# [4] = molecular target: Nicotinamide N-methyltransferase (Homo sapiens) (UniProt P40261); conditions: purified enzyme, MTase-Glo SAH luminescence; measured here: NNMT inhibition; at 40 µM; stronger effect = lower value
# How it was run: as §1
# [5] = molecular target: Phenylethanolamine N-methyltransferase (Homo sapiens) (UniProt P11086); conditions: purified enzyme, MTase-Glo SAH luminescence; measured here: PNMT inhibition; at 40 µM; stronger effect = lower value
# How it was run: as §1
# % is set by controls: 0 for no effect and ±100 for the full control effect.
Structure (SMILES),"activity change, negative = inhibition [1] [%]","activity change, negative = inhibition [2] [%]","activity change, negative = inhibition [3] [%]","activity change, negative = inhibition [4] [%]","activity change, negative = inhibition [5] [%]"
COCC(=O)N(C1CCOCC1)C1CCN(C(=O)c2cccnc2C)CC1,0.751,0.203,0.061,4.33,2.74
CNc1nc(Nc2cnn([C@H]3CCN(C4COC4)C[C@@H]3F)c2Cl)ncc1C(F)(F)F,3.07,3.91,12.8,-17.1,2.71
CSc1ccc(CN2C(=O)c3cc4ccccc4n3CC2(C)C(=O)NCc2ccccc2)cc1 (stereo unspecified),7.96,0,10.2,10.3,2.75
O=C1C=CC(O)(/C=C/C(=O)OC[C@H]2O[C@@H](Oc3ccc(O)cc3)[C@H](O)[C@@H](O)[C@@H]2O)C=C1,-6.71,-9.2,2.83,-15.3,-3.41
CCNC(=O)[C@@H]1C[C@H](NC(=O)c2ccco2)CN1C(=O)Cn1nccc1C,-0.086,1.56,0.259,4.08,6.01
COc1cc(NC(=O)Cn2nc3n(CC(C)C)c(=O)c4ccccc4n3c2=O)cc(OC)c1,-0.201,0,4.64,-1.48,-1.86
COC(=O)CNC(=O)N1CCCC1c1nc(CCOCC2CC2)no1 (stereo unspecified),-1.92,-3.41,-0.743,-5,-1.43
COC1CC(OC2CCC3(C)C(=CCC4C3CCC3(C)C(C(C)O)CCC43O)C2)OC(C)C1OC1OC(C)C(OC2OC(COC3OC(COC4OC(CO)C(O)C(O)C4O)C(O)C(O)C3O)C(O)C(O)C2O)C(OC)C1O (stereo unspecified),4.14,6.27,9.03,-5.12,6.71
Cc1cc(C)c(NC(=O)c2ncn3c2C(=O)N(C2CC2)C(C)(C(=O)NCc2ccc(F)cc2)C3)c(C)c1 (stereo unspecified),4.5,0.421,10.4,6.05,9.67
Clc1ccc(C(Cn2ccnc2)OCc2c(Cl)cccc2Cl)c(Cl)c1 (stereo unspecified),-4.18,-1.18,7.51,-66.2,-2.76
COc1ccc(C2CC(=O)c3cc(-c4nc(-c5cccc([N+](=O)[O-])c5)cs4)c(=O)n(-c4ccccc4N)c3C2)cc1 (stereo unspecified),,-52.5,,-55.1,-15.2
Cc1ncsc1CN1CCC2(CC1)CC(CC(=O)NCc1ccncc1)CCO2 (stereo unspecified),0.249,-2.84,0.068,-9.47,-0.698
O=C(CN1C(=O)C2(CCCC2)NCC1c1cc(F)cc(F)c1)Nc1ccc2c(c1)CC1(C2)C(=O)Nc2ncccc21 (stereo unspecified),0.362,6.43,8.66,-17.7,1
O=C(Cn1c(=O)oc2cc(S(=O)(=O)NCc3ccccc3)ccc21)NCCCc1ccccc1,13.9,0.862,11.7,3.59,7.94
O=C(c1cnc2ccccn12)N1CCc2c(nc(-c3ccccc3)[nH]c2=O)C1,-2.15,-3.24,0.234,0.871,-0.585
O=C(CCc1nnc2n(Cc3ccc(Cl)cc3)c(=O)c3ccccc3n12)NCCc1c[nH]c2ccccc12,-0.146,2.31,-13.5,9.42,1.18
Oc1ccc(CC2NCCc3cc(O)c(O)cc32)cc1 (stereo unspecified),-4.1,-7.95,-18.4,-18.7,-2.47
CCn1cc(C2=NOC(C(=O)Nc3c(C)n(C)n(-c4ccccc4)c3=O)C2)c(C)n1 (stereo unspecified),5.8,3.09,8.33,-4.99,6.25
COc1ccc(NC(=O)CCc2nnc3n(Cc4ccccc4)c(=O)c4ccccc4n23)cc1OC,-4.97,4.9,2.91,11.9,0.199

Structure (SMILES),"activity change, negative = inhibition [1] [%]","activity change, negative = inhibition [2] [%]","activity change, negative = inhibition [3] [%]","activity change, negative = inhibition [4] [%]","activity change, negative = inhibition [5] [%]"
COc1cccc(CN2C(=O)c3cc4c(OC)ccc(OC)c4n3CC2(C)C(=O)NC2CCCCCC2)c1 (stereo unspecified),32.7,0,-7.67,-22.5,-12
O=C(Nc1cccc(Nc2cc(Nc3cccc(C(F)(F)F)c3)ncn2)c1)C1CC1,,-41,,-76.9,-62
COc1ccc(CCN(C)CCCOc2nsc(-c3ccccc3)n2)cc1OC,-9.72,11.8,-65.2,-29.3,-2.74
CC(=C\C(C)O)/C=C(\C)C(=O)CC1CC(CC(N)=O)CC(=O)O1 (stereo unspecified),0,7.34,9.12,-5.49,6.33
CCc1nc(-c2c3n(c(=O)n(CC(=O)NCc4cccc(OC)c4)c2=O)CCCC3)no1,-0.981,-1.71,-0.92,-3.53,-4.48
CC1CCCC(NC(=O)C2(C)Cn3c(nc4ccccc43)C(=O)N2Cc2ccc(F)cc2)C1C (stereo unspecified),3.51,2.15,5.12,-2.29,1.76
O=C(c1ccccn1)N1C[C@@H]2C[C@H](C1)c1ccc(NS(=O)(=O)Cc3ccccc3)c(=O)n1C2,-5.93,-7.91,-3.9,-6.65,-8.28
O=C(NCc1cccc(C(F)(F)F)c1)c1nn(CCOc2ccccc2)c2c1CNCC2,-1.42,-2.94,-18.8,-3.63,-6.64
CC(C)CCN1C(=O)CC[C@]2(C(=O)NCc3cccs3)CCCC[C@@H]12,-1.05,1.52,1.25,-5.74,1.24
Cc1cccc2nc(CNC(=O)c3cccc(C4CCNC4)c3)cn12 (stereo unspecified),-2.23,0.272,-13,-0.026,-4.85
CCn1nccc1C(=O)N1CCCC(c2nnc(CN3CCCC3)n2C)C1 (stereo unspecified),-5.17,-14.7,-5.45,-18.4,-16.3
COc1ccc(-c2n[nH]n3c2nc(=O)c2ccc(C(=O)NCCc4ccc(Cl)cc4)cc23)cc1,-6.05,1.05,3.41,-18.2,-7.4
Cc1ccccc1C(=O)N1CC/C(=N\OS(=O)(=O)O)c2ccc(Cl)cc21,-4.92,5.21,-0.512,-21,-8.05
COc1ccc(OC)c(S(=O)(=O)N2CCC[C@H](n3c(=O)n(C)c4cccnc43)C2)c1,-7.94,3.13,-3.88,-9.17,-0.81
CCOc1ccc(CN2C(=O)c3nc4ccccc4n3CC2(C)C(=O)NC2CCC(C)CC2)cc1 (stereo unspecified),-8.48,0.304,-0.912,-4.44,-2.19
COC(=O)C1=C[C@@H](O)[C@@H](O)[C@H](O[C@@H]2O[C@H](CO)[C@@H](O)[C@H](O)[C@H]2OC(=O)/C=C/c2ccccc2)C1,0,1,5.16,-14.8,5.55
Cc1cc(CN2CCC3(CC2)CC(c2ccccc2)C(=O)N(C2CC2)C3)on1 (stereo unspecified),0.885,0.3,2.62,0.707,4.47
CCCn1cc(-c2ccnc(NCc3c(F)ccc(C)c3F)n2)c(C)n1,-9.02,-6.84,-10.3,-19.7,-2.65
